# According to PubChem BioAssay AID686978 (National Center for Advancing Translational Sciences (NCATS), 2013):
# Hit rate of the full screen: of about 420,000 compounds, about 64,000 (15%) were called active. This list was built around the results that the source calls inconclusive (neither active nor inactive); the mix of calls is not that of the screen. Calls follow the shape of the dose curve; as a rule, active = well fitted inhibition curve with a large enough effect; inconclusive = small, poorly fitted or top-dose-only effect; inactive = flat fitted curve, though single readings scatter. No potency is given beside an inconclusive call; the fits are too rough.
# Assay: qHTS for Inhibitors of human tyrosyl-DNA phosphodiesterase 1 (TDP1): qHTS in cells in absence of CPT; also: nearly all actives have a fitted effect of over 55% in size
# Conditions: DT40 Tdp1-/- hTDP1 cells, no CPT, ATP luminescence, 48 h; activity change, negative = growth inhibition: at 46.2 µM (top of the series) unless noted
# Method in brief: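 Compound effects on proliferation are scored in DT40 Tdp1-/-;hTDP1 cells in the absence of CPT. ATP levels (CellTiter-Glo luminescence) are recorded after a ≥48 hr, 37 °C incubation.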
# % is scaled to controls: 0 for no effect and ±100 for the full control effect; potency is read from the fitted curve at half-maximal effect; tags tell the direction and shape of the fitted curve.
Compound,Potency,"activity change, negative = growth inhibition"
COc1ccccc1N1CCN(C(=O)C2CCN(C(=O)c3cccc(Cl)c3)CC2)CC1,"inconclusive [inhibitor, single point]",–
CCC(C(=O)OCc1csc(CC(=O)Nc2ccccc2C)n1)c1ccccc1 (stereo not drawn),"inconclusive [inhibitor, single point]",–
Cc1ccc(NC(=O)Nc2ccc(C(=O)N3CCOCC3)cc2)cc1,"inconclusive [inhibitor, single point]",–
CN(C)c1ccc(N=Nc2ccccc2C(=O)OCC(=O)NC2CCCC2)cc1,"inconclusive [inhibitor, single point]",–
CC(C)C(C)(C#N)NC(=O)CN1C(=O)NC2(CCCc3ccccc32)C1=O (stereo not drawn),inactive,–
COc1ccc(CN(C)C[C@H]2OCc3cnnn3CCCC(=O)N([C@H](C)CO)C[C@@H]2C)cc1,"inconclusive [inhibitor, partial curve]",–
C=CC#CC1(O)CC(C)[N+](C)(C)CC1C (stereo not drawn),"inconclusive [inhibitor, partial curve, poor fit]",–
COc1ccccc1NCCC(=O)OCC(=O)NC1CCCCC1,–,inconclusive: -25.3% [inhibitor]
C#CC(C)(C)NC(=O)c1ccc(-c2ccccc2F)cc1,"inconclusive [inhibitor, single point]",–
COc1ccc(-c2cc3c(=O)n(CC(=O)N4CCN(C)CC4)ncn3n2)cc1,inactive,–
NC(=O)c1c(NC(=O)C2c3ccccc3Oc3ccccc32)sc2c1CCCCC2,"inconclusive [inhibitor, partial curve]",–
Cc1ccc(CSc2ccc3nnc(CCNS(=O)(=O)c4ccc(C)cc4)n3n2)cc1,"inconclusive [inhibitor, single point]",–
COc1ccccc1NC(=O)Cc1ccc(-c2ccccc2)cc1,"inconclusive [inhibitor, single point]",–
O=C(Nc1ccc2nc(SCC(=O)N3CCCC3)sc2c1)c1ccc(Br)cc1,"inconclusive [inhibitor, single point]",–
COc1ccc(C(=O)N2N=C(c3ccccc3)CC2(O)C(F)(F)F)cc1 (stereo not drawn),inactive,–
Cc1ccc(-n2ncc(C(=O)N3CCN(c4ccccn4)CC3)c2C2CCN(C(=O)OC(C)(C)C)CC2)cc1,"inconclusive [inhibitor, partial curve]",–
Cc1sc2ncnc(N3CCC(C(=O)Nc4cc(Cl)ccc4Cl)CC3)c2c1C,"inconclusive [inhibitor, single point]",–
CCn1nc2cc(C(=O)NCC34CC5CC(CC(C5)C3)C4)ccc2c1OC,"inconclusive [inhibitor, single point]",–
Cc1cccc(C)c1OCC(=O)NCC1COc2ccccc2O1 (stereo not drawn),"inconclusive [inhibitor, single point]",–
CCN(CC)CC#CCC(O)(c1ccccc1)C1CCCCC1 (stereo not drawn),"inconclusive [inhibitor, single point]",–
COc1ccc(-c2ccc(CN3C(C)C(=O)N(Cc4cn(CCC5OCCO5)nn4)CCS3(=O)=O)cc2)cn1 (stereo not drawn),active: 20.6 µM,–
CCC(C)NC(=O)Cn1c(=O)n(-c2ccc(Cl)c(Cl)c2)c(=O)c2c(C)c(C(=O)N(CC)CC)sc21 (stereo not drawn),"inconclusive [inhibitor, single point]",–

Compound,Potency,"activity change, negative = growth inhibition"
O=C(NCc1ccccc1)c1nc[nH]c1C(=O)NCc1ccccc1,"inconclusive [inhibitor, single point]",–
COCCn1c(=NC(=O)c2ccc(S(=O)(=O)N3CCc4ccccc4C3)cc2)sc2cc(S(N)(=O)=O)ccc21,"inconclusive [inhibitor, partial curve]",–
NCC1CCC(C(=O)O)CC1 (stereo not drawn),inactive,–
CC(C)Oc1cc(F)ccc1-c1cc(C(=O)NCC2CCCCC2)[nH]n1,"inconclusive [inhibitor, single point]",–
CCc1nn(Cc2cccc(F)c2)c(=O)c2cc3cc(C)ccc3n12,"inconclusive [inhibitor, single point]",–
N#Cc1nc(COc2ccc(-c3ccccc3)cc2)oc1NCCCN1CCOCC1,active: 23.1 µM,–
Oc1ccc(/C=N/Nc2nccnc2Cl)cc1,"inconclusive [inhibitor, partial curve]",–
COc1ccc(CN2CCCC(C(=O)N3CCCCC3)C2)c(OC)c1 (stereo not drawn),"inconclusive [inhibitor, partial curve]",–
CCCN(Cc1cc2ccc(C)cc2[nH]c1=O)S(=O)(=O)c1ccccc1,–,inconclusive: -30.2% [inhibitor]
COC(=O)c1ccccc1NC(=O)Cn1c(=O)nc(-c2ccccc2)c2cc(Cl)ccc21,inactive,–
Cc1ccc(NC(=O)c2cc(S(=O)(=O)N3CCCc4ccccc43)ccc2F)cc1F,active: 6.51 µM,–
COc1ccc(NS(=O)(=O)c2ccc(C)c(C(=O)N3CCC3)c2)cc1,inactive,–
COc1cccc(CNC(=O)CSCc2cnn(-c3ccccc3)c2-n2cccc2)c1OC,"inconclusive [inhibitor, single point]",–
CCCc1nc2ccccc2c(C(=O)OCC(=O)NCc2ccco2)c1CC,"inconclusive [inhibitor, single point]",–
COc1ccc(C(=O)NC(=S)NC(C)C)cc1Br,"inconclusive [inhibitor, single point]",–
CC(NC(=O)c1ccccc1)c1nc2ccccc2n1Cc1ccc(C#N)cc1 (stereo not drawn),"inconclusive [inhibitor, single point]",–
O=C(Nc1ccc(F)cc1)c1cc2c(s1)CCCC2,–,inconclusive: -34% [inhibitor]
O=C(NCCO)c1ccc(-c2nnc(N3CCOCC3)c3ccccc23)cc1,inactive,–
COC(=O)c1ccc2c(=O)[nH]c(COC(=O)c3c(-c4ccccc4Cl)noc3C)nc2c1,inactive,–
CSCC[C@H](NC(=O)OC(C)(C)C)C(=O)N1CCC(C(=O)NCC(=O)Nc2ccc(C)cc2)CC1,inactive,–
COc1ccccc1CNC(=O)C1CC(c2ccc([N+](=O)[O-])cc2)=NO1 (stereo not drawn),"inconclusive [inhibitor, single point]",–
